Laboratory results reported in publication PMC4336329 (PLoS ONE, 2015).
Hit rate of the full screen: of about 310,000 compounds, about 14,000 (4.5%) showed an effect of 50% or more. The effect is printed as a negative number. This is one part of the list.

target: human ether-à-go-go-related gene (hERG) potassium channel (human, UniProt Q12809); experiment: primary screen, population patch clamp on CHO cells stably expressing hERG
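Also: peak tail current of the secondary pulse compared with the same well before compound.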

Chain of human ether-à-go-go-related gene (hERG) potassium channel (Q12809 whole entry, looked up): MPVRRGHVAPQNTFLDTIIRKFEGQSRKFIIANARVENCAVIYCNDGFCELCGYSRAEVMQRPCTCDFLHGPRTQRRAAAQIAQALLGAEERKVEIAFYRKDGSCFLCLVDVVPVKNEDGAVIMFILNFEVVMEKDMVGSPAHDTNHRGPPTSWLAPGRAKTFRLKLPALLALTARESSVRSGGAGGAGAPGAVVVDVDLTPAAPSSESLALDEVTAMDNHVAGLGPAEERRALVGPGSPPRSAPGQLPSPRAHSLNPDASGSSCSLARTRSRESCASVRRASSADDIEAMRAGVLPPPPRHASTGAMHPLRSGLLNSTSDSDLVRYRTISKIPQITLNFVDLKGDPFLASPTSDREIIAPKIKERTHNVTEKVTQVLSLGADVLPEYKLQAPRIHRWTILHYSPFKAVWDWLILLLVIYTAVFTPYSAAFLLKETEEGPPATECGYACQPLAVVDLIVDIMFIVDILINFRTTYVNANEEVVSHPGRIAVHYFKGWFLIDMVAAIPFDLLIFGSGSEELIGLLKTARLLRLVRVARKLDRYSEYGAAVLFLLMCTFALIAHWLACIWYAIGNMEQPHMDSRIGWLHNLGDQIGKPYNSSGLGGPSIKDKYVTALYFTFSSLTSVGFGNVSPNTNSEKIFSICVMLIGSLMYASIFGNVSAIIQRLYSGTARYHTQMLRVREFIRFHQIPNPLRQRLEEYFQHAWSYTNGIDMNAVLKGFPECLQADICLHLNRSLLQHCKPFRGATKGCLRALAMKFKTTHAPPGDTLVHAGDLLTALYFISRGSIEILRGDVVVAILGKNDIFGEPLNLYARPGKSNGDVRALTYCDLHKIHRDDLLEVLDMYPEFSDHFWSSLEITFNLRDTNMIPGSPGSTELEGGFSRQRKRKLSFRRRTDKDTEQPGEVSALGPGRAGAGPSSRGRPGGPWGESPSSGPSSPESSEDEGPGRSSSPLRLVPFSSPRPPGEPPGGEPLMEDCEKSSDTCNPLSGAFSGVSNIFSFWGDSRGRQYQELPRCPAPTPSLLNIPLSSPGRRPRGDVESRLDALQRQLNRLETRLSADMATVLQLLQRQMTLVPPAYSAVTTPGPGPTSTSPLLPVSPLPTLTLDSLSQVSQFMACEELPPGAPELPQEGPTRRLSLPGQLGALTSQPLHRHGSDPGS

SMILES | hERG current change (%, negative = inhibition) at 10uM
COc1ccc(-c2csc(NC(C)c3nc4cc(Cl)c(Cl)cc4n3CCCO)n2)cc1 (centres unmarked) | -4.39%
C=CCn1c(SCC(N)=O)nnc1-c1ccccc1O | 0.103%
CC1CC/C(=C\c2ccc3c(c2)OCO3)C(=O)/C1=C/c1ccc2c(c1)OCO2 (centres unmarked) | 11.2%
COc1ccc(-c2c(C)nn(-c3ccccc3)c2NC(C)=O)cc1OC | 16.9%
CCc1cc(C(=O)NC(C)C2CCCO2)cs1 (centres unmarked) | 37.3%
O=C(CN1C(=O)c2ccccc2S1(=O)=O)c1ccc2c(c1)OCCO2 | 10.8%
COC(=O)c1c(C(=O)OC)c(-c2cccc(Cl)c2)n2c1CS(=O)(=O)C2 | -16.6%
CN(CCC#N)C(=O)COC(=O)c1ccc(Cl)c(S(=O)(=O)N(C)c2ccccc2)c1 | -58.2%
O=C(Cc1nc(-c2ccc(Br)s2)cs1)NCCN1CCOCC1 | -7.2%
O=C(Cn1ccc(NC(=O)OCc2ccccc2)nc1=O)NCCN1CCOCC1 | 6.09%
O=C(CCN=C1NS(=O)(=O)c2ccccc21)OCC(=O)c1ccc(F)cc1 | -3.17%
COc1cccc2cc(-c3nc(-c4cccs4)cs3)c(=O)oc12 | 5.36%
CC1(C)Oc2ccc3ccc(=O)oc3c2/C(=C/NNC(N)=O)C1=O | 1.98%
Cc1cc(C)n2nc(SCCC(=O)NCc3ccccc3)nc2n1 | 8.53%
CCCC(=O)Nc1c(-c2ccc(C)cc2)c(=O)c2ccccc2n1C | 12.7%
CCCC(=O)c1c[nH]c(C(=O)N2CCOCC2)c1 | 7.61%
COc1cccc(NC(=S)N/N=C2\CC3CCC2(C)C3(C)C)c1 (centres unmarked) | 20.5%
COCCNC(=O)CN1C(=O)CSc2ccc(S(=O)(=O)N3CCOCC3)cc21 | 16.1%
COc1ccc(C(=O)c2ccc(OC)c(OC)c2)cc1 | -6.26%

SMILES | hERG current change (%, negative = inhibition) at 10uM
CCCCc1nnc(NC(=O)c2ccccc2OCc2c(C)noc2C)s1 | -10.6%
N#Cc1nc(Cc2cccc3ccccc23)oc1NCCN1CCOCC1 | -20.3%
Cc1ccc(S(=O)(=O)NCc2cccnc2)cc1C(=O)NC1CCCCC1 | -3.53%
CC(C)NC(=O)Cn1cc(C(=O)C(=O)N2CCOCC2)c2ccccc21 | -0.333%
CNC(=O)COc1ccc(S(=O)(=O)Nc2ccc(C)cc2)cc1 | 8.87%
Cc1cc(C)n(C(=O)c2cccc([N+](=O)[O-])c2C)n1 | 11%
Cc1nn(Cc2ccc(Cl)cc2)c(C)c1NC(=O)CSc1nc2c(c(C(F)(F)F)n1)CCc1ccccc1-2 | 5.96%
CCN(CC)S(=O)(=O)c1ccc(OC)c(NC(=O)c2ccc(N3CCCC3=O)cc2)c1 | -15.1%
O=C(CSc1nc2ccccc2s1)N1CCCCC1 | -2.91%
Cc1ccccc1C(=O)/C(C#N)=N/Nc1c(C)n(C)n(-c2ccccc2)c1=O | -6.1%
COc1ccc(C2CC(c3ccccc3)=NN2C(=O)COC(=O)c2cc(S(=O)(=O)N3CCOCC3)ccc2Cl)cc1 (centres unmarked) | -5.4%
CCCCn1c2ccc(C)cc2c2nnc(SCCN3CCCCC3)nc21 | -74.3%
Cc1ccc(CS(=O)Cc2ccc(C(=O)NCc3ccccc3Br)o2)cc1 (centres unmarked) | -11.2%
COc1ccc(OC(C)C(=O)N(C)Cc2nc(-c3ccccc3)no2)cc1 (centres unmarked) | 15.8%
O=C(Nc1nc(-c2ccc(F)c(F)c2)cs1)c1ccc(OCC2CCCO2)cc1 (centres unmarked) | 5.97%
Cc1cc(=O)oc2c(C)c(OCC(=O)Nc3cccnc3)ccc12 | -25.3%
O=C(CCCN1C(=O)c2ccccc2C1=O)Nc1nnc(C2CC2)s1 | 22.5%
CCOC(=O)N1CCN(c2c(N3CCN(c4ccccc4F)CC3)c(=O)c2=O)CC1 | -48.3%
CC1CN(c2ccc(Cl)cc2[N+](=O)[O-])CCN1S(C)(=O)=O (centres unmarked) | -41.2%

SMILES | hERG current change (%, negative = inhibition) at 10uM
Cc1ccccc1N=C1NC(=O)C(CO)(CO)S1 | 13.3%
O=C(Nc1cccc(C(=O)NC2CCCCC2)c1)c1ccccc1 | 12.1%
O=C(COc1ccccc1)Nc1ccc(-c2nnc(-c3ccco3)o2)cc1 | 6.25%
NC(=NCc1ccco1)NC(=O)c1ccc(Cl)cc1 | -10.1%
CCC(CC)C(=O)NN(C(=O)c1ccncc1)C1CC(=O)N(c2ccccc2)C1=O (centres unmarked) | 9.23%
NC(=S)N=Nc1ccc(NN=C(N)N)cc1 | 5.65%
CC1CN(C(=O)COC(=O)/C=C/c2ccc(C(F)(F)F)cc2)CC(C)O1 (centres unmarked) | 5.81%
CCCn1c(SCC(=O)NCCc2ccccc2)nnc1C(C)C | -6.81%
Cn1ncc(Br)c1C(=O)Nc1cccc(C(F)(F)F)c1 | 5.14%
O=C(CCc1ccccc1)Nc1ccc(NC(=O)C2CCCCC2)nc1 | 7.57%
O=C(NNC(=O)C12CC3CC(CC(C3)C1)C2)c1ccccc1F | 4.02%
Cc1ccc(C(=O)NS(=O)(=O)c2ccc(C)cc2)cc1 | 36.3%
O=C(N1CCOCC1)N(CCN1CCOCC1)Cc1cccc2ccccc12 | -7.55%
CCCCN1CC[C@H]2C=CC[C@@H](C(=O)Nc3ccc(Cl)cc3Cl)[C@H]2C1=O | -43.7%
CS(=O)(=O)c1ccc(NCCc2ccccn2)c([N+](=O)[O-])c1 | -22.7%
COc1ccc(OCC(O)CN2CCN(Cc3ccc4c(c3)OCO4)CC2)cc1.Cl (centres unmarked) | -47.4%
CN(Cc1ccccc1)C(=O)c1nn2cccnc2c1Cl | -0.218%
Cc1ccccc1OCC(O)CNC1CCC(NCC(O)COc2ccccc2C)CC1 (centres unmarked) | -30.3%
